In PMC6682311 (ChemMedChem, 2019):

Tested on: difibrinated sheep blood
Details: compared to 1% Triton-X; sheep red blood cells, one hour, 37 °C

Compound	concentration effecting 50% lysis [µM]
CCCCCOc1ccc(-c2nc(N)[nH]c2C(F)(F)F)cc1 [Compound 12j, 4-(4-(Pentyloxy)phenyl)-5-(trifluoromethyl)-1H-imidazol-2-amine]	159
CCCCCCc1ccc(-c2nc(N)[nH]c2C(F)(F)F)cc1 [Compound 12g, 4-(4-Hexylphenyl)-5-(trifluoromethyl)-1H-imidazol-2-amine]	151
